Measured values as given in PubChem BioAssay AID1963867 (Molecular Pharmacology Branch, DTP, NCI, 2024).
The source holds more than one record for some entries. Only these are listed. There may be further records. Values given together repeat one measurement (runs, samples, wells, individuals or studies). Signs of the kind (2×) give the number of equal values in this list. Dates in brackets are months of testing.

Test system: KRAS-mutant PDC tumor spheroid with HUVEC/MSC, viability
Test: Anticancer human tumor 327498-153-R-J2-PDC patient-derived uterine carcinosarcoma cell line growth inhibition [KRAS2]
Settings: for viability, T/C: stronger effect = lower value; for IC50: compound alone
Description: Multicellular complex tumor spheroid response to RAS pathway inhibitors in combination with a targeted agents in patient-derived cell lines with oncogenic KRAS variants from multiple cancer types
A high-throughput screen of multi-cell type tumor spheroids was designed to identify active combinations of targeted small molecules and KRAS pathway inhibitors. Complex spheroids include a stromal component modeled by human endothelial cells (HUVEC) and fibroblasts modeled by human mesenchymal stem cells (MSCs). The concentration ranges selected for each drug and investigational agent were based upon clinically achievable concentrations if the clinical Cmax of the agent was known.
Compounds. The drugs and investigational agents: BI-3406 (NSC825286), BAY-293 (NSC824723), batoprotafib (TNO155; NSC825523), sotorasib (AMG 510; NSC818433), MRTX1257 (NSC819558), elimusertib (BAY 1895344; NSC800525), molibresib (GSK525762; NSC774829), temuterkib (LY3214996; NSC803410), venetoclax (NSC766270), alisertib (NSC759677), olaparib (NSC753686), talazoparib (NSC767125), erdafitinib (NSC781556), ipatasertib (NSC767898), cabozantinib (NSC761068), nintedanib (NSC756659), abemaciclib (NSC768073), docetaxel (NSC628503), trametinib (NSC758246), and sapanisertib (NSC764658) were obtained from the National Cancer Institute (NCI) Developmental Therapeutics Program Chemical Repository. The FDA-approved anticancer drug set is available from the Developmental Therapeutics Program. […] The stock solutions were prepared in dimethyl sulfoxide (DMSO, Sigma-Aldrich, St. Louis, MO, cat. D2650) at 800-fold the tested concentration and stored at -70 degrees C prior to their use. All drugs and investigational agents were tested over a range starting from a high concentration at or near the clinical Cmax and decreasing in half-log increments. If the clinical Cmax for an agent had not been determined, the highest concentration tested was 10 microM.
Cell Culture. All cells were maintained in an incubator at 37 degrees C and 5% CO2 with 95% humidity. The PDC lines were cultured according to standard operating procedures established by the NCI PDMR (https://pdmr.cancer.gov/sops/default.htm). Briefly, all PDCs were thawed and cultured in Matrigel-coated flasks prepared with a working solution of 1X Ham's F-12 nutrient mix, without supplementation (Invitrogen, Waltham, MA, cat. 11765054), 100 U/mL penicillin-streptomycin (Invitrogen, cat. 15140122), and 2.5% Matrigel (Corning Inc., Corning, NY, cat. 354248) for the first three passages. All PDCs were cultured in complete DMEM/F-12 media containing advanced DMEM/F-12 (Invitrogen, cat. 12634028), 4.9% defined fetal bovine serum, heat inactivated (HyClone Laboratories Inc., Logan, UT, cat. SH30070.03HI), 389 ng/mL hydrocortisone (Sigma-Aldrich, cat. H4001), 9.7 ng/mL human EGF recombinant protein (Invitrogen, cat. PHG0313), 23.4 microg/mL adenine (Sigma-Aldrich, cat. A2786), 97.3 U/mL penicillin-streptomycin (Invitrogen, cat. 15140122), 1.9 mM L-glutamine (Invitrogen, cat. 25030081), and 9.7 microM Y-27632 dihydrochloride (Tocris Bioscience, Bristol, United Kingdom, cat. 1254). The PDCs were cultured in complete DMEM/F12 media without 9.7 microM Y-27632 dihydrochloride for at least two passages prior to the screen. The established cell line HOP-62 was cultured in RPMI 1640 medium, HEPES (Invitrogen, cat. 22400105) with 10% defined fetal bovine serum (HyClone Laboratories Inc., cat. SH30070.03) and 2 mM L-glutamine (Invitrogen, cat. 25030081). The pooled donor HUVEC were cultured in endothelial cell growth medium 2 (PromoCell, Heidelberg, Germany, cat. C-22011) and the hMSC were cultured in mesenchymal stem cell growth medium 2 (PromoCell, cat. C-28009). For all experiments, HUVEC and hMSC were used at passages </=5, while the malignant cell lines were used at passages </=15. […]
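Further: spheroids exposed to agents for seven days before reading.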
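Wherever viability, T/C is given: 100% = DMSO vehicle wells so lower means fewer viable cells.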

Compound	viability, T/C (compound alone 1 µM)	viability, T/C (compound alone 3.16 µM)	IC50 (run of 07/12/2021)	IC50	viability, T/C (compound alone 10 µM)	viability, T/C (compound alone 0.1 µM)	viability, T/C (compound alone 0.316 µM)	viability, T/C (compound alone 0.01 µM)	viability, T/C (compound alone 0.0316 µM)	IC50 (run of 07/19/2021)	IC50 (run of 07/26/2021)
CC1OCC2(CCN(c3cnc(Sc4ccnc(N)c4Cl)c(N)n3)CC2)C1N (stereo unspecified)	98.6, 99.8, 102, 46.6, 48.8, 43.5, 36.2, 45.1, 40.9 (2×), 43.4, 35.6, 48.1, 48.5, 54.8, 44.3, 38.1, 39.9, 43, 59%	18.3, 39.4, 39.7, 38.6, 37.2, 28.9 (2×), 31.3, 38.8, 32.4, 32.7, 40.1, 45.7, 40.3, 32.2, 35.1, 31, 35.5, 28.4, 43.1%	1.84 µM, 2.35 µM, 2.44 µM, 749 nM, 912 nM, 700 nM								
COc1cc2nccc(Oc3ccc(NC(=O)C4(C(=O)Nc5ccc(F)cc5)CC4)cc3)c2cc1OC	101, 91.1, 108, 45, 97.3%	34, 31.1, 46.2, 2.04, 47.4%		2.37, 2.2, 2.9, 10, 2.98 µM	7.04, 6.18, 3.41, 103, 4.4%						
COc1cc2nc(C)nc(NC(C)c3cc(N)cc(C(F)(F)F)c3)c2cc1OC1CCOC1 (stereo unspecified)	105, 94.9 (2×), 74.5 (2×), 77.2, 60.2, 67.5, 69.2, 79.4, 68.5, 65.9, 85.4, 65.7, 83.6, 77% (2×)				69.8, 56.3, 103, 55.5, 57.3 (2×), 49.8, 54.5, 48.2, 53.5, 47, 55, 62.5, 69.6, 55.3, 53, 54.6%	86.5, 88, 82, 92.3, 86.2, 88.3, 60.3, 72.1, 64.2, 87.6 (2×), 76.9 (2×), 81.3, 81.2, 80.7, 77.3%	64.5, 68.8, 78.1, 76.1, 83, 88.6, 60.2, 68, 67.9, 74.8, 71.5, 78.6, 77.5, 77.1, 73.8, 73.5%				
COc1cc(OC)cc(N(CCNC(C)C)c2ccc3ncc(-c4cnn(C)c4)nc3c2)c1	86.9, 73.5, 82.8, 2.1, 78.5%	72.7, 77.9, 81, 0.47, 76.2%		4.54 µM, 4.62 µM, 4.78 µM, 113 nM, 4.71 µM			63.5, 75.5, 80.8, 7.76, 79.6%				
COC(=O)c1ccc2c(C(=Nc3ccc(N(C)C(=O)CN4CCN(C)CC4)cc3)c3ccccc3)c(O)[nH]c2c1	59.2, 59.8, 63, 70.2, 87%	32.9, 32.5, 23.8, 51, 53.6%		1.56 µM, 1.45 µM, 4.15 µM, > 10 µM	10.4, 8.17, 13.1, 43.9, 53.1%						
CC1COCCN1c1cc(-c2ccnn2C)c2ccnc(-c3ccn[nH]3)c2n1 (stereo unspecified)				43.2 nM, 48.3 nM, 54 nM, < 10 nM, 32.6 nM				84.6, 96.4, 92.1, 7.53, 92%	61.4, 68.6, 79.1, 6.4, 50.9%		
C=CC(=O)N1CCN(c2nc(=O)n(-c3c(C)ccnc3C(C)C)c3nc(-c4c(O)cccc4F)c(F)cc23)C(C)C1 (stereo unspecified)	63, 102, 61.2, 48.5, 58.5, 55, 57.3, 53.1, 63.4, 57.7, 54.7 (2×), 63.7, 60.1, 60 (2×), 56%	65.4, 91.4, 62.4, 47.8, 62.2, 33.5, 62.7, 49.1, 61.9, 57.7, 57.9, 56.7, 52.3, 60.5, 58.5, 54, 60.2%			58.9, 111, 49.3, 36.8, 46.2, 22.7, 52.4, 35.2, 50.3, 39.4, 43.5, 55.3, 46.7, 45.9, 49.4, 46.6, 44.6%	71.8 (2×), 93.2, 54.5, 62.9, 72.6, 66.5, 55.5, 59, 56.1, 69.8, 65.1, 70.7, 65.3, 60.8, 63.1, 60.1%	59.2 (2×), 95.7, 58.6, 55.7, 61.4, 64, 61.2, 61.3, 56.8, 54.9, 63.2, 60, 60.7, 52.8, 62, 54.4%			> 10 µM, 2.58 µM, 4.89 µM, 4.54 µM	> 10 µM, 5.27 µM, 7.16 µM, 6.05 µM
C=CC(=O)N1CCN(c2nc(OCC3CCCN3C)nc3c2CCN(c2cccc4cccc(C)c24)C3)CC1CC#N (stereo unspecified)		91.8, 0.19 (3×), 0.18 (2×), 4.54, 0.17, 1.14, 0.43, 0.36, 0.62, 1, 1.17, 1.23, 1.04%	> 3.16 µM, 1.04 µM, 1.16 µM, 425 nM, 1.09 µM, 862 nM			62.7, 67.5, 64.2, 56.2, 66.4, 71.4, 61.3, 59.2, 55.6, 98.9, 54.4, 53.8, 56.7, 59, 61.4, 46.5, 56.5%			73.7, 75.5, 75.8, 54.7, 73.5, 81.7, 57.5, 63.5, 62.2, 77.9, 72.1, 67.5, 71.4, 67.7, 71.7, 66.5, 55.4%	788 nM and 387 nM, 1.12 µM, 651 nM, 230 nM [2021-07]	623 nM, 1.16 µM, 220 nM, 870 nM, 223 nM, 390 nM
CCNC(=O)CC1N=C(c2ccc(Cl)cc2)c2cc(OC)ccc2-n2c(C)nnc21 (stereo unspecified)		61.1, 52.4, 57.6, 32.7, 58.2%		8.59 µM, > 10 µM, 8.65 µM, 839 nM, 9.32 µM	47.7 (2×), 55.3, 21.9, 48.4%						
CNCc1ccccc1-c1csc(C(C)Nc2nc(C)nc3cc(OC)c(OC)cc23)c1 (stereo unspecified)	105, 106, 84.9, 66.3, 79, 79.8, 61.7, 72.1, 73.5, 70.9, 74.7, 76.8, 77.4, 72.4, 75.5, 75.4, 66.8%	105, 84.6, 68.3, 7.39, 33.9, 47.3, 10.4, 0.12, 0.11, 0.09 (2×), 19, 0.87, 0.15, 0.1%	5.47, 5.12, 4.31, 1.37, 2.1, 2.96 µM								
